In paper PMC6451091:
The other results are listed elsewhere or left out. For part of these data: At the low end of the ranking, values are background and their order means little. For part of these data: Measured with an extract: partners may take part in the binding.

target: PU.1 (IVT) (UniProt P17947); assay: protein-binding microarray (PBM); settings: 20 mM HEPES pH 7.9, 100 mM NaCl, 1 mM DTT, 0.2 mg/mL BSA, 0.02% Triton X-100, 2% milk, 0.4 mg/mL salmon testes DNA; 1 h; temperature not stated; high values mean tight binding; double strand, one strand shown; sequences stand for … in GCCTAGCAC…GTGCTAGGTCTTGATTCGCTTGACGCTGCTG

Sequence | binding signal [z-score]
GTAAAACAGAAGTGAAACTG | 1.74
CTGGCAGGGAACTGAAACTA | 0.814
TGGAAGAGGAAGTGAAACTA | 6.34
AAAAAAAGGTAATGAAAGTA | 0.213
TAAATGAGGAACTGAAACCA | 5.87
GCTTTAGGGAAGTGAAACTG | 4.9
TGGCAGAGGAAGTGAACCTA | 3.12
AAAAAAAGGAATTGAAAGTA | 2.19
TGAGAGGACAAGTGAAACCT | -0.169
TGGCAGAGGAATTGAAACTA | 0.131
GGAAAGAGGAAGGGAAACTG | 3.89
AAAAAAAGGAAAGGAAAGTA | 1.27
CTGGCAGGGAAATGAAACTC | 0.13
TTACACAGGAAGTGAAACTA | 2.43
GGGCAGAGGAAGTGAAACTA | 3.41
GATAAGAGAAACTGAAAGCT | -0.311
TAGAAGAGGAACTGAAACTT | 4.3
TGAAAAAGGAAGTGAAACCA | 5.02
TGGCAGAAGAAGTGAAACTA | 0.713
GAAAATGGGAAGTGAAACTA | 5.99

Sequence | binding signal [z-score]
TGCCGGAGGAAGTGAAACTC | 2.26
AAAAAAAGGAGATGAAAGTA | -0.187
TCTCTGAGGAAGTGAAACTC | 2.86
TGGCAGAGGAAGTTAAACTA | 3.71
AAAAAAAGGAAATGAACGTA | 3.24
TGAAACAGGAAGTCAAACCA | 5.83
TGGCAGAGGAAGCGAAACTA | 1.32
CTGGCAGGGAACAGAAACTC | 0.453
CTGCTAGGGAAGTGAAAGCA | 2.85
CAGTTGAGGAAGTGAAACTG | 4.67
TGAAAGGAGAAGTGAAACCT | 3.8
CAGAGGGGGAAGTGAAACCC | 4.03
TAAAGGAGGAAATGAAACCA | 2.45
TGGCAAAGGAAGTGAAACTA | 1.48
GGAGAGGAGAAGTGAAACCT | 1.23
AGAAACAGGAAGTGAAACTG | 7.62
GACATGAGGAAGTGAAACTA | 4.72
GGCTGGCAGAAGTGAAACTC | 0.153
CTGGCAGGGACCTGAAACTC | -0.741
CAAAAGAGGAAGAGAAACTC | 5.07

target: T1, FLI1 (endogenous, THP-1 nuclear extract) (UniProt Q01543); assay: nuclear extract protein-binding microarray (nextPBM); settings: 20 mM HEPES pH 7.9, 100 mM NaCl, 1 mM DTT, 0.2 mg/mL BSA, 0.02% Triton X-100, 2% milk, 0.4 mg/mL salmon testes DNA; 1 h; temperature not stated; high values mean tight binding; double strand, one strand shown; sequences stand for … in GCCTAGCAC…GTGCTAGGTCTTGATTCGCTTGACGCTGCTG
T1 sequence: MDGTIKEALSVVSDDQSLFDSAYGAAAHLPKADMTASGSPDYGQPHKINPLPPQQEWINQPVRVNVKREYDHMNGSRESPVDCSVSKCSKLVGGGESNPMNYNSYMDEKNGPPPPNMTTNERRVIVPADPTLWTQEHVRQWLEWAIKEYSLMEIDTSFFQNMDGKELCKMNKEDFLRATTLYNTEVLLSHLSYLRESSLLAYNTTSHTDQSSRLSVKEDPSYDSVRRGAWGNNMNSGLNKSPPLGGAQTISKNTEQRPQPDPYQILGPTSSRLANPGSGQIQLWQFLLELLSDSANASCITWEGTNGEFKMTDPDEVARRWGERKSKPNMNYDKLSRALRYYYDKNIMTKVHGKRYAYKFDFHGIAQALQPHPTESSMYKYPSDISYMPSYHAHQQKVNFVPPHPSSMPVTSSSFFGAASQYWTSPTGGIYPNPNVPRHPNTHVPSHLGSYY

Sequence | binding signal [z-score]
GTAAAACAGAAGTGAAACTG | 1.03
CTGGCAGGGAACTGAAACTA | 0.227
TGGAAGAGGAAGTGAAACTA | 4.31
AAAAAAAGGTAATGAAAGTA | 0.0278
TAAATGAGGAACTGAAACCA | 2.9
GCTTTAGGGAAGTGAAACTG | 2.81
TGGCAGAGGAAGTGAACCTA | 2.6
AAAAAAAGGAATTGAAAGTA | 0.731
TGAGAGGACAAGTGAAACCT | -0.0377
TGGCAGAGGAATTGAAACTA | 0.102
GGAAAGAGGAAGGGAAACTG | 2.65
AAAAAAAGGAAAGGAAAGTA | 1.32
CTGGCAGGGAAATGAAACTC | 1.25
TTACACAGGAAGTGAAACTA | 4.89
GGGCAGAGGAAGTGAAACTA | 3.48
GATAAGAGAAACTGAAAGCT | 0.0383
TAGAAGAGGAACTGAAACTT | 2.98
TGAAAAAGGAAGTGAAACCA | 3.74
TGGCAGAAGAAGTGAAACTA | -0.341
GAAAATGGGAAGTGAAACTA | 2.96

Sequence | binding signal [z-score]
TGCCGGAGGAAGTGAAACTC | 2.81
AAAAAAAGGAGATGAAAGTA | 0.244
TCTCTGAGGAAGTGAAACTC | 2.75
TGGCAGAGGAAGTTAAACTA | 2.55
AAAAAAAGGAAATGAACGTA | 2.17
TGAAACAGGAAGTCAAACCA | 4.83
TGGCAGAGGAAGCGAAACTA | 2.31
CTGGCAGGGAACAGAAACTC | 0.0959
CTGCTAGGGAAGTGAAAGCA | 1.26
CAGTTGAGGAAGTGAAACTG | 3.48
TGAAAGGAGAAGTGAAACCT | 2.2
CAGAGGGGGAAGTGAAACCC | 2.76
TAAAGGAGGAAATGAAACCA | 2.71
TGGCAAAGGAAGTGAAACTA | 2.68
GGAGAGGAGAAGTGAAACCT | 0.714
AGAAACAGGAAGTGAAACTG | 6.05
GACATGAGGAAGTGAAACTA | 3.11
GGCTGGCAGAAGTGAAACTC | -0.305
CTGGCAGGGACCTGAAACTC | -0.876
CAAAAGAGGAAGAGAAACTC | 2.59

test system: PU.1 (endogenous, THP-1 nuclear extract) + IRF8 (endogenous, THP-1 nuclear extract); assay: as above; settings: 20 mM HEPES pH 7.9, 100 mM NaCl, 1 mM DTT, 0.2 mg/mL BSA, 0.02% Triton X-100, 2% milk, 0.4 mg/mL salmon testes DNA; 1 h; temperature not stated; high values mean tight binding; double strand, one strand shown; sequences stand for … in GCCTAGCAC…GTGCTAGGTCTTGATTCGCTTGACGCTGCTG

Sequence | binding signal [z-score]
GTAAAACAGAAGTGAAACTG | 55.3
CTGGCAGGGAACTGAAACTA | 21.4
TGGAAGAGGAAGTGAAACTA | 84.8
AAAAAAAGGTAATGAAAGTA | 3.35
TAAATGAGGAACTGAAACCA | 69
GCTTTAGGGAAGTGAAACTG | 76
TGGCAGAGGAAGTGAACCTA | 1.07
AAAAAAAGGAATTGAAAGTA | 7.83
TGAGAGGACAAGTGAAACCT | 10.5
TGGCAGAGGAATTGAAACTA | 15
GGAAAGAGGAAGGGAAACTG | 9.16
AAAAAAAGGAAAGGAAAGTA | -0.0838
CTGGCAGGGAAATGAAACTC | 12.3
TTACACAGGAAGTGAAACTA | 58.5
GGGCAGAGGAAGTGAAACTA | 55.2
GATAAGAGAAACTGAAAGCT | 7.84
TAGAAGAGGAACTGAAACTT | 34.2
TGAAAAAGGAAGTGAAACCA | 63.8
TGGCAGAAGAAGTGAAACTA | 38.9
GAAAATGGGAAGTGAAACTA | 78.4

Sequence | binding signal [z-score]
TGCCGGAGGAAGTGAAACTC | 41.6
AAAAAAAGGAGATGAAAGTA | 2.97
TCTCTGAGGAAGTGAAACTC | 46.9
TGGCAGAGGAAGTTAAACTA | -0.349
AAAAAAAGGAAATGAACGTA | 0.329
TGAAACAGGAAGTCAAACCA | 0.359
TGGCAGAGGAAGCGAAACTA | 61.2
CTGGCAGGGAACAGAAACTC | 5.14
CTGCTAGGGAAGTGAAAGCA | 7.83
CAGTTGAGGAAGTGAAACTG | 64.5
TGAAAGGAGAAGTGAAACCT | 49.3
CAGAGGGGGAAGTGAAACCC | 27.9
TAAAGGAGGAAATGAAACCA | 29.6
TGGCAAAGGAAGTGAAACTA | 56.6
GGAGAGGAGAAGTGAAACCT | 23.5
AGAAACAGGAAGTGAAACTG | 77.9
GACATGAGGAAGTGAAACTA | 73.5
GGCTGGCAGAAGTGAAACTC | 29.7
CTGGCAGGGACCTGAAACTC | 5.04
CAAAAGAGGAAGAGAAACTC | 9.32
